The list shows a part of the results.
T1: UNK ZnF1-6 (called full-length) (human, UniProt Q9C0B0 30-357)
T1 sequence: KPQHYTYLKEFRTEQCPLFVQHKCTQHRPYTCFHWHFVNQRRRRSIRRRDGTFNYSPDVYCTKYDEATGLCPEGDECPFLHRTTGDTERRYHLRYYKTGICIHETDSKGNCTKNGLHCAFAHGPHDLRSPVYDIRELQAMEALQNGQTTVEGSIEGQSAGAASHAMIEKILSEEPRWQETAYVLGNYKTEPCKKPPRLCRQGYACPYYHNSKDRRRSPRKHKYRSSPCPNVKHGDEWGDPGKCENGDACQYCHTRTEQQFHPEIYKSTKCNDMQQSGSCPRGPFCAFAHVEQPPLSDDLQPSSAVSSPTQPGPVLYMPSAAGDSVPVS

B1: ENSG00000107863:be:win_3351|CDS|ENSG00000107863|bound_else_gene|NA|bound_elsewhere_windowed (ssRNA)
RNA: GGGAGUUCUACAGUCCGACGAUCAAAAGACAAAGGCACAUGGAGAAAAGGCAUUCCAAGUAUCAUGAGAAAGACAUUUGAGAAAAAGCCAACUGCUACAGGAACUUUCGGCGUCCGACUAGAUGACUGCCCACCAGCUCAUACCAACAGAGGAUUGAGCAUCA
B2: chr14:67336187:67336738:-|three_prime_utr|ENSG00000100554|control|control|control (ssRNA)
RNA: GGGAGUUCUACAGUCCGACGAUCGUCAAGUAUGAUUUGAUUUAAUUUGAUCUUUAUAUUUUAAGAAUUACGUACUGCCUUUCUAGGAGGCAAAAAUUAGUUUGAAGUAGGGAUCCAGAUUAGUGGUUUUCCACAUGUAGGUAACAACAGAGGAUUGAGCAUCA
B3: chr1:116393555:116393656:+|CDS|ENSG00000163399|msi1|FALSE|unique (ssRNA)
RNA: GGGAGUUCUACAGUCCGACGAUCCCCCAACACAUCGGAGCCCCAACACCUGUUGGUGAUGAAGGGCGCCCCAGAAAGGAUCCUAGACCGUUGCAGCUCUAUCCUCCUCCACGGCAAGGAGCAGCCCCUGGAUGAGGAGCUGAACAACAGAGGAUUGAGCAUCA
B4: ENSG00000112365:stop:overlap|stop_codon|ENSG00000112365|stop_codon|NA|stop_codon (ssRNA)
RNA: GGGAGUUCUACAGUCCGACGAUCUCUACACACUGGCAAGAAGCCUUUCUCCUGCCCUGAGUGUAACUUACAGUUUGCUCGCUUAGACAACUUGAAGGCUCACUUGAAAAUUCAUAGCAAGGAGAAGCAUGCUUCAGAUGCCAGCAACAGAGGAUUGAGCAUCA
B5: chr12:76028505:76028606:-|3pUTR|ENSG00000139289|msi1|FALSE|unique (ssRNA)
RNA: GGGAGUUCUACAGUCCGACGAUCAAGUCUUGGUCAGUAUUUUUCCAGCAUUUAAAUUGAAACGGUCAGUAUUAGACCACUGCUAGGUUAUGUAGUCAAGAAAUAAAAAUAGAAUUACAUGCUACAGAUGUCUUUAUUCUCCUUCAACAGAGGAUUGAGCAUCA
B6: chr2:240467872:240467977:+|3pUTR|ENSG00000063660|msi1|total|mutant (ssRNA)
RNA: GGGAGUUCUACAGUCCGACGAUCCUCUGGCACAGUGAUGCCGGGCGCCAGGACAGCAGCACUCCCGCUGCACACAGACGGCCCCGGGGUGGCGCUCAGACCCCACCCUACGCUCAUCUCUGGAAGGGGCAGCCCUGAGUGGUCCAACAGAGGAUUGAGCAUCA
B7: chr15:30400561:30403739:-|three_prime_utr|ENSG00000186399|control|control|control (ssRNA)
RNA: GGGAGUUCUACAGUCCGACGAUCAUAAGAAACCAAGUUAUGGGGUUAAUCUCCUACACAAUUCAUUUACUUCCUUUGAAUGUUAGACUCACUCAUGAUUAUUUGUGUUUCUAAUUUAUAGUUUAAGUUUAUUUGUAAAAAGUUCAACAGAGGAUUGAGCAUCA
B8: chr12:64147824:64147925:+|3pUTR|ENSG00000196935|unk|total|mutant (ssRNA)
RNA: GGGAGUUCUACAGUCCGACGAUCCAUCUCUGUGGUGUCUUUGUUCCUUUCCUUUCAUUCAUCACUACUUUCUCCUUGACAGCCCGCUUGCAUUAAAUAAUGUGAAACUUUUACCUUUAAAAUAUUUUUUUAUCUCACUUUCAUCAACAGAGGAUUGAGCAUCA
B9: chr11:2397021:2397122:+|3pUTR|ENSG00000110651|msi1|FALSE|unique (ssRNA)
RNA: GGGAGUUCUACAGUCCGACGAUCUUGGGGUUUUGUUUUUGUUCUGAACUUUCCUGUUACCUUUUCAGGGCUGACGUCACAUGUAGGUGGCGUGUAUGAGUGGAGACGGGCCUGGGUCUUGGGGACUGGAGGGCAGGGGUCCUUCAACAGAGGAUUGAGCAUCA
B10: chr7:107760707:107760808:+|3pUTR|ENSG00000105879|unk|FALSE|unique (ssRNA)
RNA: GGGAGUUCUACAGUCCGACGAUCAAACAUGAAAUAUGUAGUAUGCAGAUAUCAUUUAUUAGAUAGUUUGUAGUGUAUACAUUUAGAACAUACUUCUUUUGACAAAGGGUGAUCUGAUUGCUAAUUUACCAUUUUAUUCUGUCACAACAGAGGAUUGAGCAUCA
B11: chr6:132328510:132328611:-|CDS|ENSG00000079931|msi1|total|mutant (ssRNA)
RNA: GGGAGUUCUACAGUCCGACGAUCUUGUGGGAUGUUGCCGGGUGGUCUUAUUUAUUGUGUCCUCCCUCUCAUUUAUGUUCGUGCCGGUUGAGCCAGUGAUACAGAGAGGCCAUGAGAGUCUGGUGCACCACAUCCUGCUCUAUCCAACAGAGGAUUGAGCAUCA
B12: ENSG00000227500:stop:overlap|stop_codon|ENSG00000227500|stop_codon|NA|stop_codon (ssRNA)
RNA: GGGAGUUCUACAGUCCGACGAUCGCAACAGCCUGCCCGAGUACCCCACUGUGCCCAGCUACCCGGGCAGUGGCCAGUGGCCUUAGAGGGAGCCUGCCCUGCCCCCACCGCCCACCACCUCCUCCCCUUCAUUCCUGCUGCUACCAACAGAGGAUUGAGCAUCA
B13: ENSG00000198589:be:win_7351|CDS|ENSG00000198589|bound_else_gene|NA|bound_elsewhere_windowed (ssRNA)
RNA: GGGAGUUCUACAGUCCGACGAUCGUGUUGAGAGAGGCUGUUGAAGCUCAAAUCCGAAGUUUUGGACAGACUCCUUCUCAACUACUCAUAGAGCCCCAUCCUCCCAGAGGUUCUGCCAUGCAAGUGAGUCCAUUGAUGUUCACACAACAGAGGAUUGAGCAUCA
B14: chr4:68310386:68314098:-|three_prime_utr|ENSG00000083896|control|control|control (ssRNA)
RNA: GGGAGUUCUACAGUCCGACGAUCGCACUGAUUGUUUAAAGAUACAAAAAAUCUUGUAUUUUUUUUUUGUGUGUGUUUACAAGUAGUAAAUUUAUUUUCAGCUGUCUGCCUAUGAAGUUCAUUGUGUAGAAGGAUUUAUUAUGACAACAGAGGAUUGAGCAUCA

biological target: T1, UNK ZnF1-6 (called full-length); experiment: nsRBNS (natural sequence RNA bind-n-seq); RBNS binding buffer (assumed for nsRBNS): 25 mM Tris pH 7.5, 150 mM KCl, 3 mM MgCl2, 0.01% Triton X-100, 500 ug/ml BSA, 20 U/ml SUPERase-In, 4 C; UNK is unkempt and MSI1 is Musashi-1; names of the RNAs are library labels; protein concentration not given here; high values mean tight binding

Row | Binder | binding signal [enrichment R]
1 | B1 | 0.507
2 | B2 | 2.22
3 | B3 | 0.574
4 | B4 | 0.948
5 | B5 | 0.83
6 | B6 | 0.66
7 | B7 | 3.04
8 | B8 | 2.22
9 | B9 | 2.11
10 | B10 | 1.11
11 | B11 | 0.689
12 | B12 | 0.868
13 | B13 | 0.567
14 | B14 | 0.948
